Over roughly 81,000 sequences, “one-hybrid fitness for binding parS DNA” has its median near -0.17; the highest 2% begin near 0.51. Some of the results follow.
B1: Caulobacter ParB omega fusion; a variant is named by its letters at X, in order, B8GW30 (parent)
chain: MESVVVGEPGMSEGRRGLGRGLSALLGEVDAAPAQAPGEQLGGSREAPIEILQRNPDQPRRTFREEDLEDLSNSIREKGVLQPILVRPSPDTAGEYQIVAGERAWRAAQRAGLKTVPIMVRELDDLAVLEIGIIENVQRADLNVLEEALSYKVLMEKFERTQENIAQTIGKSXSHVANXMRLLXLPDEVQSYLVSGELTAXHARAIAAAADPVALAKQIIEGGLSVRETEALARKAPNLSAGKSKGGRPPRVKDTDTQALESDLSSVLGLDVSIDHRGSTGTLTITYATLEQLDDLCNRLTRGI

Variants of: B1
Experiment: one-hybrid fitness for binding parS DNA (scaled: cognate 1, non-cognate 0); higher = stronger binding
Details: with parS DNA site
Summary of the method: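 On M9-minus-histidine containing 0.1 mM IPTG and 5 mM 3-AT, E. coli USO cells with a HIS3 reporter, site 19 bp from the promoter, grew 48 hours at 37°C to select Caulobacter ParB libraries randomised at four specificity codons. Plasmids from before and after were Illumina-sequenced, with three replicate libraries pooled and variants under 10 reads left out. Fitness is the log change in variant-to-wild-type read ratio, rescaled against cognate and non-cognate.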

Variant | one-hybrid fitness for binding parS DNA
VHMW | ≤ 0.2
RFNQ | ≤ 0.2
IRGS | ≤ 0.2
TGRV | ≤ 0.2
SSAI | ≤ 0.2
IQPS | ≤ 0.2
VDPI | ≤ 0.2
RTWC | 0.985
TLLP | ≤ 0.2
YYST | ≤ 0.2
QHWD | ≤ 0.2
GLWV | ≤ 0.2
LDTT | ≤ 0.2
HICL | ≤ 0.2
ASTE | ≤ 0.2
PTHW | ≤ 0.2
SRNA | ≤ 0.2
PTCM | ≤ 0.2
TMHT | ≤ 0.2
PTPA | ≤ 0.2
FMVC | ≤ 0.2
WCTT | ≤ 0.2
GHLC | ≤ 0.2
FWAC | ≤ 0.2

Variant | one-hybrid fitness for binding parS DNA
TSVT | ≤ 0.2
APVS | ≤ 0.2
SDTG | ≤ 0.2
CVWR | ≤ 0.2
QYGD | ≤ 0.2
RNPT | 0.307
YVCG | ≤ 0.2
ETQT | ≤ 0.2
YTCS | ≤ 0.2
RKPA | 0.223
NLTG | ≤ 0.2
PPYG | ≤ 0.2
MTLK | ≤ 0.2
HRDL | ≤ 0.2
PNPA | ≤ 0.2
THVS | ≤ 0.2
NMRT | ≤ 0.2
YAYC | ≤ 0.2
CRDG | ≤ 0.2
MPAS | ≤ 0.2
RFHC | 0.925
YAHG | ≤ 0.2
GQCT | ≤ 0.2
MYSA | ≤ 0.2

Variant | one-hybrid fitness for binding parS DNA
PHDT | ≤ 0.2
RKTM | ≤ 0.2
ETMM | ≤ 0.2
MDEY | ≤ 0.2
CLHR | ≤ 0.2
WDER | ≤ 0.2
PLHF | ≤ 0.2
MPPM | ≤ 0.2
KGGA | ≤ 0.2
VEDA | ≤ 0.2
LHPG | ≤ 0.2
YSQN | ≤ 0.2
KMQR | ≤ 0.2
RYVM | 0.257
GEKS | ≤ 0.2
RDKS | 0.45
RRGD | ≤ 0.2
QVVR | ≤ 0.2
VMYL | ≤ 0.2
PFEC | ≤ 0.2
QMED | ≤ 0.2
RQKP | ≤ 0.2
QWGT | ≤ 0.2
ETSS | ≤ 0.2

Variant | one-hybrid fitness for binding parS DNA
IFGS | ≤ 0.2
CRAY | ≤ 0.2
WTDG | ≤ 0.2
RKSG | 0.928
RTRY | 0.828
PSGG | ≤ 0.2
QNVV | ≤ 0.2
QMVF | ≤ 0.2
VVRY | ≤ 0.2
VGTG | ≤ 0.2
GPED | ≤ 0.2
PTCC | ≤ 0.2
SDPR | ≤ 0.2
IYQL | ≤ 0.2
NWYS | ≤ 0.2
CMHF | ≤ 0.2
LDIW | ≤ 0.2
RVMQ | ≤ 0.2
CIVC | ≤ 0.2
QLRY | ≤ 0.2
WADL | ≤ 0.2
EVVT | ≤ 0.2
PVMQ | ≤ 0.2
GGSW | ≤ 0.2

Variant | one-hybrid fitness for binding parS DNA
QWPD | ≤ 0.2
LVDM | ≤ 0.2
WRLS | ≤ 0.2
IRSQ | ≤ 0.2
HNMS | ≤ 0.2
LVTN | ≤ 0.2
HMTR | ≤ 0.2
RWAP | ≤ 0.2
PITM | ≤ 0.2
WSRM | ≤ 0.2
FNRC | ≤ 0.2
GMTC | ≤ 0.2
NKNA | ≤ 0.2
MHKM | ≤ 0.2
GKLA | ≤ 0.2
MSSG | ≤ 0.2
SPQN | ≤ 0.2
HMPV | ≤ 0.2
GWSD | ≤ 0.2
ESNR | ≤ 0.2
LVRN | ≤ 0.2
QGTM | ≤ 0.2
IRTL | ≤ 0.2
DYSK | ≤ 0.2

Variant | one-hybrid fitness for binding parS DNA
LPKC | ≤ 0.2
CLLT | ≤ 0.2
RFFP | ≤ 0.2
LWLV | ≤ 0.2
TQSW | ≤ 0.2
TFAN | ≤ 0.2
AWER | ≤ 0.2
AGVR | ≤ 0.2
QEMS | ≤ 0.2
CQSR | ≤ 0.2
PVIA | ≤ 0.2
PFLV | ≤ 0.2
RNLN | 0.251
MLLL | ≤ 0.2
TPNY | ≤ 0.2
YIGD | ≤ 0.2
NSSY | ≤ 0.2
TIRK | ≤ 0.2
GGER | ≤ 0.2
RMHM | 0.374
QDHS | ≤ 0.2
LAIT | ≤ 0.2
WRMG | ≤ 0.2
CGEE | ≤ 0.2

Variant | one-hybrid fitness for binding parS DNA
DARA | ≤ 0.2
IYWI | ≤ 0.2
PYRH | ≤ 0.2
SKSL | ≤ 0.2
RWSG | 0.769
SGGG | ≤ 0.2
RWVC | 0.544
FVST | ≤ 0.2
HHSY | ≤ 0.2
TRLC | ≤ 0.2
LWPF | ≤ 0.2
SGPY | ≤ 0.2
LLEF | ≤ 0.2
EVTW | ≤ 0.2
SLFC | ≤ 0.2
RSVG | 0.89
TTLD | ≤ 0.2
SPIL | ≤ 0.2
NKRS | ≤ 0.2
HCGC | ≤ 0.2
QACD | ≤ 0.2
IQCR | ≤ 0.2
VEER | ≤ 0.2
HNTY | ≤ 0.2

Variant | one-hybrid fitness for binding parS DNA
GIRE | ≤ 0.2
DTLR | ≤ 0.2
RMSM | 0.37
DPLC | ≤ 0.2
GMLK | ≤ 0.2
EGKT | ≤ 0.2
SVNT | ≤ 0.2
ECST | ≤ 0.2
RYMW | ≤ 0.2
RRGW | ≤ 0.2
HIPG | ≤ 0.2
AQHR | ≤ 0.2
REKF | ≤ 0.2
MCTV | ≤ 0.2
VCMR | ≤ 0.2
DSAS | ≤ 0.2
TLYT | ≤ 0.2
NEVP | ≤ 0.2
QASF | ≤ 0.2
LSNT | ≤ 0.2
TLLM | ≤ 0.2
PFDT | ≤ 0.2
SIKP | ≤ 0.2
IHSN | ≤ 0.2

Variant | one-hybrid fitness for binding parS DNA
WVWC | ≤ 0.2
LVNR | ≤ 0.2
LPQR | ≤ 0.2
VVKQ | ≤ 0.2
HTWN | ≤ 0.2
RTCV | ≤ 0.2
IQRR | ≤ 0.2
SKPP | ≤ 0.2
FHPP | ≤ 0.2
AQIR | ≤ 0.2
EDKV | ≤ 0.2
ASLG | ≤ 0.2
QPCI | ≤ 0.2
YKKG | ≤ 0.2
SSQE | ≤ 0.2
EKET | ≤ 0.2
HCSS | ≤ 0.2
HHVD | ≤ 0.2
RLFE | ≤ 0.2
AAKT | ≤ 0.2
ITRR | ≤ 0.2
YCHA | ≤ 0.2
VGGF | ≤ 0.2
HSKS | ≤ 0.2

Variant | one-hybrid fitness for binding parS DNA
AFFG | ≤ 0.2
YQLN | ≤ 0.2
GVCW | ≤ 0.2
GPNC | ≤ 0.2
MASA | ≤ 0.2
SDPI | ≤ 0.2
SDPK | ≤ 0.2
HMAV | ≤ 0.2
LGPM | ≤ 0.2
GRPA | ≤ 0.2
CNTC | ≤ 0.2
NWYR | ≤ 0.2
PAKG | ≤ 0.2
ETAK | ≤ 0.2
QDWY | ≤ 0.2
FIRR | ≤ 0.2
IALD | ≤ 0.2
WTPR | ≤ 0.2
NKSC | ≤ 0.2
YDGM | ≤ 0.2
VTKP | ≤ 0.2
VDTF | ≤ 0.2
TSLA | ≤ 0.2
PKRE | ≤ 0.2

Variant | one-hybrid fitness for binding parS DNA
PGAD | ≤ 0.2
QLEH | ≤ 0.2
FSTA | ≤ 0.2
AAIY | ≤ 0.2
LKPY | ≤ 0.2
MFTT | ≤ 0.2
SFRT | ≤ 0.2
HHLC | ≤ 0.2
PYMG | ≤ 0.2
VLKK | ≤ 0.2
KHCR | ≤ 0.2
PPET | ≤ 0.2
ANKK | ≤ 0.2
NAQS | ≤ 0.2
VNLK | ≤ 0.2
QDLP | ≤ 0.2
EDCR | ≤ 0.2
HDST | ≤ 0.2
IGMD | ≤ 0.2
HPLM | ≤ 0.2
EIYS | ≤ 0.2
LHAT | ≤ 0.2
QMWP | ≤ 0.2
QMER | ≤ 0.2

Variant | one-hybrid fitness for binding parS DNA
VRQG | ≤ 0.2
TQAQ | ≤ 0.2
MGMA | ≤ 0.2
VVGI | ≤ 0.2
WDTA | ≤ 0.2
NWNG | ≤ 0.2
RERS | 0.529
KDLL | ≤ 0.2
FYSG | ≤ 0.2
FYHC | ≤ 0.2
QIQF | ≤ 0.2
WAKV | ≤ 0.2
RFKY | 0.569
IHYT | ≤ 0.2
HNRE | ≤ 0.2
PKPK | ≤ 0.2
QPIS | ≤ 0.2
AWLF | ≤ 0.2
SEVT | ≤ 0.2
HRKK | ≤ 0.2
VYRW | ≤ 0.2
RKPI | ≤ 0.2
DAYS | ≤ 0.2
HQTS | ≤ 0.2

Variant | one-hybrid fitness for binding parS DNA
QMDT | ≤ 0.2
TSPA | ≤ 0.2
SGHT | ≤ 0.2
RNLD | ≤ 0.2
CQTA | ≤ 0.2
FAPR | ≤ 0.2
PPGD | ≤ 0.2
LKCD | ≤ 0.2
RAFR | ≤ 0.2
LQMR | ≤ 0.2
GFSL | ≤ 0.2
SCKR | ≤ 0.2
RRPM | 0.215
PDYV | ≤ 0.2
SQLK | ≤ 0.2
PFPA | ≤ 0.2
NYPT | ≤ 0.2
TELW | ≤ 0.2
